Drawing on publication PMC10140047, this text covers binding for 4 substances.

Chains of the proteins cited; added tags and fusions are not shown. Lines headed by an entry give the natural chain unless they say otherwise; changes in a name come on top. Residues count along the entry.
UniProt Q8TD16: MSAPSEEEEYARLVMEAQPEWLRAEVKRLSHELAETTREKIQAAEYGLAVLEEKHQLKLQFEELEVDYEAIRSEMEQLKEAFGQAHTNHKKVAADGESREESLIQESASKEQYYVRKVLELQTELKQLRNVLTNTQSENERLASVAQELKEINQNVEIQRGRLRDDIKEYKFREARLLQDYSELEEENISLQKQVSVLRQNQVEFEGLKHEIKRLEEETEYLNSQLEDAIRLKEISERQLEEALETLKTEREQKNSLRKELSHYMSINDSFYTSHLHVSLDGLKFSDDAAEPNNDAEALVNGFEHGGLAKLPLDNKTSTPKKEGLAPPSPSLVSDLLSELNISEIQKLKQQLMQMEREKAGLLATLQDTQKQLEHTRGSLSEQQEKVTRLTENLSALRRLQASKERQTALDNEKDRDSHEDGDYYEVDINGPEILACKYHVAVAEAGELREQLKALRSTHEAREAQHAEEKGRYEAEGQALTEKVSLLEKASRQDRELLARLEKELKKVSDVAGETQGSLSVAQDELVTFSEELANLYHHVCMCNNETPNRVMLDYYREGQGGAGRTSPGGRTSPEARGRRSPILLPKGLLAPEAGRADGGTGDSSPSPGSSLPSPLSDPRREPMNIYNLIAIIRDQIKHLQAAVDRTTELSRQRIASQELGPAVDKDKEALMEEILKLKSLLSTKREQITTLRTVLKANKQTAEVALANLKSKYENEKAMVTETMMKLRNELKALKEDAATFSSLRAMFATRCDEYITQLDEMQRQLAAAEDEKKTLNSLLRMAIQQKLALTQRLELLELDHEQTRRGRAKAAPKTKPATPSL
UniProt Q921C5: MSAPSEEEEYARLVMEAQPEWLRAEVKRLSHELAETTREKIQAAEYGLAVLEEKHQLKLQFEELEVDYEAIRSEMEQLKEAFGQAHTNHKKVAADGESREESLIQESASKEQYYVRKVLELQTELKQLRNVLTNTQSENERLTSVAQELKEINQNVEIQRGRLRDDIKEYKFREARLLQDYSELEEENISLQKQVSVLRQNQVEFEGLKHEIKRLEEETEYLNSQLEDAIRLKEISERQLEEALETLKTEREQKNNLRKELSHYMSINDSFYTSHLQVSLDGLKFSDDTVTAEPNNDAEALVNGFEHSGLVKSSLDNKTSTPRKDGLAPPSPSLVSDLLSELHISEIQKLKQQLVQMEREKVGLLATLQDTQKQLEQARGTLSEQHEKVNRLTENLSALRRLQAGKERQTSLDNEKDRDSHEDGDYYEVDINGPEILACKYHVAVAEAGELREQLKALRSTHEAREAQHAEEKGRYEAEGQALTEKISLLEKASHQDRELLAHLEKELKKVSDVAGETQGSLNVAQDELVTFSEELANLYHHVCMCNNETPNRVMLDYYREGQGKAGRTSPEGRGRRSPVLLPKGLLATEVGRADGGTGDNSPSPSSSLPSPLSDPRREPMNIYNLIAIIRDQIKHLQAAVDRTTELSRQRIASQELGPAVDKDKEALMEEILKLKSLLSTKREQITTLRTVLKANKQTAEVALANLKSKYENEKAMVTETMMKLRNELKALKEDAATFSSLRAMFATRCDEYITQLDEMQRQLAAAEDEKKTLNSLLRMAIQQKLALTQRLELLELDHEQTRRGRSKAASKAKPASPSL
GFP-BICD2 [1–575]: residues 1-575 of Q921C5

The target of assay [1] is BICD2 (endogenous, HeLa cells) (human (endogenous in HeLa)) (UniProt Q8TD16). Nature of the assay: co-IP; anti-BICD2 immunoprecipitates of endogenous BICD2 from exponentially growing and mitotic HeLa cell extracts, blotted for PLK1; normal IgG as control.
Assay [2] addresses GFP-BICD2 wild type (mouse) (UniProt Q921C5). The experiment in a line: co-IP; anti-GFP immunoprecipitates of GFP-fusion proteins from transfected HeLa cells (exponentially growing or mitotic), blotted for endogenous PLK1.
In assay [3] the target is GFP-BICD2 [T319A, S320A, T321A] (mouse) (UniProt Q921C5). Described as above.
The target of assay [4] is GFP-BICD2 [1–575] (mouse) (UniProt Q921C5). The assay is described as above.
Assay [5] addresses GST-PLK1 PBD (GST-PLK1 [354–603]) (UniProt P53350). Nature of the assay: pull-down; bacterially expressed GST-PBD bound to GSH agarose beads incubated with extracts of HeLa cells (exponentially growing or mitotic; untransfected or expressing GFP-BICD2 forms); western blot for BICD2 or GFP; only the target purified. For orientation: Immunoblotting shows a protein as a band on a membrane.

Results are given in words; binding and its absence hold for the method and conditions named. Binding seen in cells or lysates may run through a third protein. Some entries that bind do so weakly or less than the wild type.

On to “PLK1 (endogenous, HeLa cells) (from UniProt P53350 1-603) (enzyme)”, for which the binding result in assay [1] is recorded as “binds”; in assay [2], “binds”; in assay [3] it was “no binding”; in assay [4] it was “binds”. Turning to “GFP-BICD2 [T319A, S320A, T321A] (from UniProt Q921C5 1-820)”, the binding result in assay [5] is reported as “no binding”. On to “BICD2 (endogenous, HeLa cells) (from UniProt Q8TD16 1-824)”, for which the binding entry in assay [5] is listed as “binds”. In the case of “GFP-BICD2 wild type (from UniProt Q921C5 1-820)”, the binding result in assay [5] is “binds”.
